# Data from the antibiotic and cytotoxicity screens of Wong et al. (2023).
# The list shows a part of the results.
# System: HSkMC (human skeletal muscle cells)
# Assay: cytotoxicity call (relative viability < 0.9)
# Settings: 10 µM
row,SMILES,cytotoxicity call
1,CCOC(=O)CCCCCC(=O)Nc1ccc2c(c1)C(=O)N([C@@H](C)CO)C[C@H](C)[C@H](CN(C)S(C)(=O)=O)O2,inactive
2,Cc1ccc(-c2ccc(N)cc2)cc1,inactive
3,C[C@@H]1CCCCO[C@@H](CN(C)C(=O)Nc2ccccc2)[C@H](C)CN([C@H](C)CO)C(=O)c2cc(NC(=O)Nc3ccccc3)ccc2O1,inactive
4,COc1ccc(C#Cc2ccc3c(c2)[C@]2(C(=O)N3)[C@H](C(=O)O)[C@H]3C(=O)O[C@H](c4ccccc4)[C@H](c4ccccc4)N3[C@@H]2c2ccc(O)cc2)cc1,inactive
5,CCCNC(=O)C[C@@H]1CC[C@H]2[C@@H](COc3ccc(NC(=O)c4ccc5c(c4)OCO5)cc3C(=O)N2C)O1,inactive
6,C[C@H](CO)N1C[C@H](C)[C@H](CN(C)C(=O)c2ccncc2)Oc2cc(C#CC3(O)CCCC3)ccc2S1(=O)=O,inactive
7,C[C@H]1CCCCO[C@@H](CN(C)S(=O)(=O)c2ccccc2)[C@@H](C)CN([C@@H](C)CO)C(=O)c2cc(NS(=O)(=O)c3cn(C)cn3)ccc2O1,inactive
8,Cc1noc(C)c1S(=O)(=O)Nc1ccc2c(c1)CC(=O)N([C@@H](C)CO)C[C@@H](C)[C@@H](CN(C)Cc1ccncc1)O2,inactive
9,Cc1noc(C)c1NC(=O)N(C)C[C@H]1Oc2ccc(NS(=O)(=O)c3cccs3)cc2CC(=O)N([C@H](C)CO)C[C@H]1C,inactive

# System: HepG2
# Assay: cytotoxicity call (relative viability < 0.9)
# Settings: 10 µM
row,SMILES,cytotoxicity call
1,COc1cccc(C#Cc2ccc3c(c2)O[C@H](CN(C)C(=O)c2ccccn2)[C@H](C)CN([C@@H](C)CO)S3(=O)=O)c1,inactive
2,C[C@H]1CN([C@@H](C)CO)C(=O)CCCn2nncc2CO[C@H]1CN(C)C(=O)c1ccc(N2CCN(C)CC2)cc1,inactive
3,COc1ccc(NC(=O)Nc2ccc3c(c2)C(=O)N([C@H](C)CO)C[C@H](C)[C@@H](CN(C)CC2CCCCC2)OCCCC[C@H](C)O3)cc1,inactive
4,CCc1nc2ccc(C(=O)N3CCN(c4ccccc4)CC3)cn2c1N(CC)Cc1cccc(Br)c1,inactive
5,COc1ccccc1-c1ccc2c(c1)O[C@H](CN(C)C(=O)c1cccnc1)[C@@H](C)CN([C@@H](C)CO)S2(=O)=O,inactive
6,Cc1ccc(-c2cnc3c(c2)C(=O)N([C@@H](C)CO)C[C@@H](C)[C@@H](CN(C)C(=O)Cc2cccnc2)O3)cc1,inactive
7,C[C@H](C(=O)NC1CCCC1)N(C(=O)Cn1nnc(-c2ccc3c(c2)OC(F)(F)O3)n1)C1CCCCC1,inactive
8,C[C@@H]1CCCCO[C@H](CN(C)C(=O)Nc2ccc(C(F)(F)F)cc2)[C@H](C)CN([C@H](C)CO)C(=O)c2cc(NC(=O)C3CCCCC3)ccc2O1,inactive
9,CO[C@@H]1CN(C)C(=O)c2cc(NC(=O)NC3CCCCC3)ccc2OC[C@@H](C)N(CCc2ccccc2)C[C@H]1C,active
10,CC(C)NC(=O)N[C@H]1C=C[C@@H](CC(=O)NCCCN(C)C)O[C@@H]1CO,inactive
11,COc1ccc(S(=O)(=O)N(C)C[C@@H]2Oc3ccc(NS(=O)(=O)c4ccc(F)cc4)cc3CC(=O)N([C@@H](C)CO)C[C@@H]2C)cc1,inactive
12,C[C@H]1CN([C@@H](C)CO)C(=O)Cc2cc(NS(C)(=O)=O)ccc2O[C@@H]1CN(C)Cc1ccc(C(=O)Nc2ccccc2N)cc1,inactive
13,COc1ccc([Si](C)(C)[C@H]2[C@H](CC(=O)N(CCO)Cc3ccccc3)O[C@@]3(C(=O)N(Cc4cccc(N5CCCCC5=O)c4)c4ccccc43)[C@@H]2C)cc1,inactive
14,CC1=NCC[C@@H](C(=O)O)N1,inactive
15,CCCCOc1ccc(C(=O)CCN2CCCCC2)cc1.Cl,active
16,Oc1c(I)cc(Cl)c2cccnc12,active
17,C[C@@H]1CN([C@H](C)CO)C(=O)c2cc(NC(=O)Cn3cnnn3)ccc2O[C@H]1CN(C)S(C)(=O)=O,inactive
18,C[C@@H]1CN([C@H](C)CO)C(=O)Cc2cc(NC(=O)Nc3ccc(F)cc3)ccc2O[C@@H]1CN(C)Cc1ccc(Oc2ccccc2)cc1,active
19,Cc1cc(C)n(N)c(=O)c1C(=O)O,inactive
20,COc1ccc2c3c(n(c2c1)C)[C@H](CO)N(C[C@]13CCN(CC1)S(=O)(=O)c1cn(cn1)C)C(=O)Nc1ccc(cc1)F,inactive

row,SMILES,cytotoxicity call
1,COc1ccc(NC(=O)N(C)C[C@@H]2OCCCC[C@@H](C)Oc3ccc(NC(=O)NC(C)C)cc3C(=O)N([C@H](C)CO)C[C@H]2C)cc1,inactive
2,C[C@H](CO)N1C[C@H](C)[C@H](CN(C)C(=O)NC2CCCCC2)OCCCC[C@H](C)Oc2ccc(NC(=O)Nc3ccc4c(c3)OCO4)cc2C1=O,inactive
3,CCNC(=O)C[C@H]1C=C[C@@H](NC(=O)C2CC2)[C@@H](CO)O1,inactive
4,Cc1cc(C)nc(SCC(=O)NN)n1,inactive
5,COCC(=O)Nc1ccc2c(c1)OC[C@@H](C)N(Cc1cccc(F)c1)C[C@H](C)[C@@H](OC)CN(C)C2=O,inactive
6,Cc1noc(C)c1S(=O)(=O)Nc1ccc2c(c1)C(=O)N([C@H](C)CO)C[C@H](C)[C@@H](CN(C)S(C)(=O)=O)OCCCC[C@@H](C)O2,inactive
7,O=C(C[C@H]1CC=CC[C@@H](Cc2ccc(F)cc2)C(=O)OC[C@H](Cc2c[nH]c3ccccc23)NC1=O)NCCO,inactive
8,Cc1ccc(S(=O)(=O)Nc2ccc3c(c2)C(=O)N([C@H](C)CO)C[C@@H](C)[C@H](CN(C)S(=O)(=O)c2ccc(C)cc2)OCCCC[C@H](C)O3)cc1,inactive
9,C[C@H]1CCCCO[C@H](CN(C)Cc2ccc(C(F)(F)F)cc2)[C@@H](C)CN([C@@H](C)CO)C(=O)c2cc(NC(=O)C3CCCCC3)ccc2O1,active
10,COc1ccc(S(=O)(=O)N(C)C[C@H]2OCCCC[C@H](C)Oc3ccc(NS(C)(=O)=O)cc3C(=O)N([C@H](C)CO)C[C@@H]2C)cc1,inactive
11,O=C(NCCCN1CCOCC1)[C@H]1[C@H](CO)[C@H]2Cn3c(ccc(C4=CCCCC4)c3=O)[C@@H]1N2,inactive
12,CCOC(=O)CCCCCC(=O)Nc1ccc2c(c1)C(=O)N([C@@H](C)CO)C[C@H](C)[C@H](CN(C)S(C)(=O)=O)O2,inactive
13,Cc1ccc(-c2ccc(N)cc2)cc1,inactive
14,C[C@@H]1CCCCO[C@@H](CN(C)C(=O)Nc2ccccc2)[C@H](C)CN([C@H](C)CO)C(=O)c2cc(NC(=O)Nc3ccccc3)ccc2O1,inactive
15,COc1ccc(C#Cc2ccc3c(c2)[C@]2(C(=O)N3)[C@H](C(=O)O)[C@H]3C(=O)O[C@H](c4ccccc4)[C@H](c4ccccc4)N3[C@@H]2c2ccc(O)cc2)cc1,inactive
16,CCCNC(=O)C[C@@H]1CC[C@H]2[C@@H](COc3ccc(NC(=O)c4ccc5c(c4)OCO5)cc3C(=O)N2C)O1,inactive
17,C[C@H](CO)N1C[C@H](C)[C@H](CN(C)C(=O)c2ccncc2)Oc2cc(C#CC3(O)CCCC3)ccc2S1(=O)=O,inactive
18,C[C@H]1CCCCO[C@@H](CN(C)S(=O)(=O)c2ccccc2)[C@@H](C)CN([C@@H](C)CO)C(=O)c2cc(NS(=O)(=O)c3cn(C)cn3)ccc2O1,inactive
19,Cc1noc(C)c1S(=O)(=O)Nc1ccc2c(c1)CC(=O)N([C@@H](C)CO)C[C@@H](C)[C@@H](CN(C)Cc1ccncc1)O2,inactive
20,Cc1noc(C)c1NC(=O)N(C)C[C@H]1Oc2ccc(NS(=O)(=O)c3cccs3)cc2CC(=O)N([C@H](C)CO)C[C@H]1C,inactive
